Laboratory results: the supplement of paper PMC3334620
Over roughly 33,000 sequences, “E-score (-0.5 to 0.5)” has its median near -0.013; the highest 2% begin near 0.3. The list shows a part of the results.

Molecular target: T1, Msn1 (UniProt P22148)
T1 sequence: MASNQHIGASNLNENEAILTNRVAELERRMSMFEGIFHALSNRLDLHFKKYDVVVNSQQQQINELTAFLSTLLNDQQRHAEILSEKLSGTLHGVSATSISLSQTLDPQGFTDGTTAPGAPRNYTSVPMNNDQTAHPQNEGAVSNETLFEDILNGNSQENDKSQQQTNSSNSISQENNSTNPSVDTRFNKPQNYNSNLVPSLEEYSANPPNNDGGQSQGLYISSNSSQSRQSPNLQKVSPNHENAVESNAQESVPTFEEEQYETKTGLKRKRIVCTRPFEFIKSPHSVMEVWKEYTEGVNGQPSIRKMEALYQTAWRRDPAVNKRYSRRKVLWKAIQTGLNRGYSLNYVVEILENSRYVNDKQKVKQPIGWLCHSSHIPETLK
Experiment: PBM E-score (8-mer binding enrichment) (E-score (-0.5 to 0.5)); higher = stronger / more preferred TF binding; most listed sequences are background and not binding sites
Settings: protein concentration: 200 nM; construct: GST-full length
Protocol: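 Universal 'all 10-mer' protein binding microarrays (Agilent AMADID 015681) probed with GST-tagged S. cerevisiae TFs (full-length or DBD) made by in vitro transcription/translation (PURExpress), about 100-200 nM. Bound TF was detected with fluorescent anti-GST. Each ungapped 8-mer (which stands for itself and its reverse complement) is scored by the PBM enrichment score (E-score), a modified Wilcoxon-Mann-Whitney statistic from -0.5 to +0.5, computed with the Universal PBM Analysis Suite. Scale: above 0.35 generally sequence-specific binding.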

In order of falling “PBM E-score” value:
1. GATTGTCC  0.458
2. AAACGTTT  0.291
3. GTACTAAA  0.281
4. AACGTGTC  0.251
5. ACAATATC  0.247
6. AAGTCCCT  0.225
7. ATTCCGTA  0.198
8. TCCGGGCA  0.171
9. ATGCGTGA  0.167
10. GGAGGGAC  0.166
11. ACTAGTGC  0.163
12. ACACATGG  0.161
13. GACACAAC  0.16
14. ACCATGTA  0.154
15. AAATTGGG  0.15
16. ACCATATG  0.148
17. ACAGTTAC  0.138
18. AAGCGCGC  0.133
19. CATTACTC  0.128
20. TCCTAGAA  0.127
21. CCGCCGGA  0.12
22. ACACTAAC  0.119
23. AACCACGC  0.116
24. CTAAGGAA  0.115
25. CAGAAGAC  0.112
26. GACCATAA  0.105
27. CATACCGC  0.104
28. GTTGCGGA  0.0984
29. CTTCATGA  0.0972
30. ACGGACGA  0.0949
31. GTCTCCAA  0.0934
32. CCGAGTTC  0.0909
33. CGCCCACA  0.0859
34. CGCGTACA  0.0819
35. CTTACTAC  0.0818
36. ATTCTACA  0.0776
37. GAGGTAAA  0.0739
38. CAGCGAGC  0.0729
39. AGGTCCAG  0.0683
40. CTTTTATA  0.0612
41. CGCCGTAA  0.0564
42. AGCAATCA  0.0558
43. TACAACCA  0.0532
44. AGTAAACA  0.0506
45. GGAACAAC  0.0504
46. ATGTTTTA  0.0474
47. CCTTCATA  0.0448
48. GCAACTAA  0.044
49. ACGAATCC  0.0413
50. ATTTTTGG  0.0371
51. CCGCATAG  0.0368
52. ATGCTGTC  0.0368
53. AAACCATT  0.0322
54. CTTACAGC  0.0295
55. CGAACGCG  0.0282
56. CTCGCCAA  0.0253
57. TTGATCAA  0.0253
58. CGTTTCGC  0.0248
59. TACTTAGA  0.0191
60. CGTCGTGA  0.016
61. CTCTGTAC  0.0138
62. TCCCTCGA  0.0135
63. CGATACGC  0.0134
64. CAGTAACA  0.0131
65. AAACTCGA  0.0109
66. CTGCACGA  0.00403
67. CACACCCA  0.00267
68. CAAGAAGC  0.0015
69. GTCACCAA  0.00107
70. CACCCGGA  0.00098
71. ACTAACGA  -0.00087
72. GTCGTCTA  -0.00305
73. CCTCGATC  -0.00455
74. AGTATAGC  -0.00602
75. AATGGGGA  -0.00796
76. GAGAACGC  -0.0088
77. CGTAAGAA  -0.00925
78. CCTTACAG  -0.011
79. GAAATACC  -0.0126
80. GAGGGAAC  -0.0141
81. ATAGGAAT  -0.0141
82. TCAGGAGA  -0.0143
83. ATGTGCCC  -0.0153
84. GTAATGAA  -0.0202
85. ATTTGGTG  -0.0212
86. GCATATGA  -0.0245
87. GTGAGGCA  -0.0279
88. CGATAGAC  -0.0284
89. ATAAGCCA  -0.0287
90. TAACCTGA  -0.0313
91. AAACAGTA  -0.0344
92. AGTGTTCA  -0.0345
93. ACGTGCTG  -0.0351
94. AGCGTTCG  -0.04
95. AGCTCGTG  -0.0447
96. CAACGGAG  -0.0515
97. CCCCGGAC  -0.0556
98. CGGTCGGA  -0.0558
99. ATCAGAAT  -0.0571
100. CTTTGCTA  -0.0573
101. CTATGGTA  -0.058
102. GCGTTTAC  -0.0648
103. GAGTTAGC  -0.0683
104. ACAGGTGG  -0.0714
105. GATAATCC  -0.0724
106. ACGGTATA  -0.0729
107. GCTTAAAC  -0.0733
108. ATATGACC  -0.0751
109. GTGCGCAA  -0.0763
110. GAAACCAA  -0.078
111. AGCATCTG  -0.0786
112. AACCAAGC  -0.0788
113. ACGCGCTG  -0.0805
114. AAGAGTTA  -0.0816
115. GCCCCGCC  -0.0833
116. ACCCGTCC  -0.0862
117. CAGCATGG  -0.0875
118. CTATTGAC  -0.0942
119. CCTGAGTC  -0.0945
120. CCGTAACG  -0.096
121. CCTTTAGC  -0.107
122. TCCCCTCA  -0.11
123. GAGGAGAC  -0.117
124. ATGCTACA  -0.12
125. ACCGATCC  -0.12
126. CGAGCCTA  -0.12
127. CTACGTTC  -0.126
128. TAAAGGAA  -0.131
129. CTGTGCCC  -0.131
130. AATGGGCG  -0.132
131. CCGCAGTC  -0.132
132. CGCGTGCC  -0.134
133. CAGGACTG  -0.137
134. CCAAGCCC  -0.141
135. GCTTACAC  -0.145
136. CCACGGTA  -0.145
137. CCGACGTA  -0.149
138. GAACGCTC  -0.15
139. CGTAGACC  -0.151
140. AGGGGACT  -0.151
141. AGTGCGTC  -0.155
142. ATAGGGCC  -0.158
143. AAGGTAGC  -0.16
144. TAGCCCCA  -0.163
145. CCTGCACG  -0.163
146. GCTCACGA  -0.185
147. ATCCTGCC  -0.188
148. ATAGGGCG  -0.188
149. ATCACCGG  -0.189
150. ACCAGGCA  -0.197
151. GGAGAAGA  -0.21
152. ACGCACCC  -0.219
153. CCGCTCAC  -0.22
154. AGCTCTCC  -0.222
155. ATCGCCCC  -0.23
156. CTGCTCGA  -0.233
157. AGAGGGCC  -0.237
158. CCACTCAG  -0.242
159. AGAGCTGC  -0.244
160. AGGCAGGG  -0.256
161. AGGCCTCA  -0.261
162. AGGAGCAG  -0.262
163. AGAGAGCC  -0.262
164. AGCCCGCC  -0.268
165. GCCTCCAC  -0.295
166. CCCCCTCC  -0.336
167. TGGGGGAA  -0.337
168. ACCTTTGG  -0.343
169. GGAGAGCC  -0.346
170. CCTCCTAC  -0.352
171. AGGAGAGG  -0.357
172. GAAGCCCC  -0.359
